Measurements reported in PubChem BioAssay AID1452 (National Center for Advancing Translational Sciences (NCATS), 2008).
Out of some 150,000 compounds screened, about 190 (0.13%) were called active. The inconclusive results got no clear call from the source; some entries with a clear call stand among them for comparison. The call rests on the fitted dose curve; in most records, active means well fitted inhibition curve with a large enough effect; inconclusive means small, poorly fitted or top-dose-only effect; inactive means flat fitted curve, though single readings scatter. Potencies beside an inconclusive call are fits to weak or partial responses and may not hold up.

target: Polyunsaturated fatty acid lipoxygenase ALOX12 (Homo sapiens) (UniProt P18054); test: qHTS Assay for Inhibitors of 12-hLO (12-human lipoxygenase); conditions: purified 12-hLO, xylenol orange hydroperoxide absorbance; series mostly up to 57.1 µM; activity change, negative = inhibition: at the top concentration; further: nearly all actives have a fitted effect of over 55% in size
Chain of UniProt P18054 (P18054 whole entry, looked up): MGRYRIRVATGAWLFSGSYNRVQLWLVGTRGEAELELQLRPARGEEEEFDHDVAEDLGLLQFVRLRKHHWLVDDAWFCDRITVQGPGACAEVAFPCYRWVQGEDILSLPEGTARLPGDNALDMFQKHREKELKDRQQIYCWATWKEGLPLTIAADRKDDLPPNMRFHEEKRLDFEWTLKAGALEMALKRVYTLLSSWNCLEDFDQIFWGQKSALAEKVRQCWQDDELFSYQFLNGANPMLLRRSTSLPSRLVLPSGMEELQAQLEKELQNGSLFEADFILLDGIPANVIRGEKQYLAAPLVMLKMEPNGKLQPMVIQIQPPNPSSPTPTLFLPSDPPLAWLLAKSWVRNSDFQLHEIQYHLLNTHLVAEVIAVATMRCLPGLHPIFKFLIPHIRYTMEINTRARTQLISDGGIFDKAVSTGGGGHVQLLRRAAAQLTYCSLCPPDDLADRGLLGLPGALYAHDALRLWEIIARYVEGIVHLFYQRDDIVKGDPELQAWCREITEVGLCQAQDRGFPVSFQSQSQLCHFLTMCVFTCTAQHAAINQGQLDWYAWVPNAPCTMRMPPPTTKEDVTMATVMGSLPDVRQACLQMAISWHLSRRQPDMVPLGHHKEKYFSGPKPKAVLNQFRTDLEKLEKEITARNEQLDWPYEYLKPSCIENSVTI
How it was run: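 Hydroperoxide output read as Fe(III)-xylenol orange absorbance, 573-to-405 nm ratio, after 30 min reaction with 40 uM arachidonic acid. Enzyme: 150 nM purified human 12hLO, 15 min compound preincubation; 25 mM Hepes pH 7.0, room temperature.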
On the % scale 0 is the no-effect control and ±100 the full control effect; potency means the concentration at half of the fitted maximal effect; tags describe the fitted curve by direction and shape.

| Structure (SMILES) | Potency | activity change, negative = inhibition |
| --- | --- | --- |
| COc1ccc(-c2n[nH]c(C)c2-c2ccc(OC)c(OC)c2)c(O)c1 | inconclusive: 15.8 µM [inhibitor, partial curve] |  |
| O=[N+]([O-])/C=C/c1cn(Cc2ccc(Cl)cc2)c2ccccc12 | inconclusive: 0.141 µM [inhibitor, full curve] |  |
| CC(=O)Nc1ccccc1 |  | inactive: 1.78% |
| CC(=O)Oc1c(/C=C(\C#N)C(N)=O)[nH]c2ccccc12 | inconclusive: 39.8 µM [inhibitor, single point] |  |
| N#C/C(=C/c1ccc([N+](=O)[O-])cc1)C(=O)Nc1ccccc1O |  | inactive: -20.2% |
| COc1ccc(C2(C(=O)Nc3nncs3)CCCC2)cc1 |  | inactive: 3.96% |
| COc1ccc(C(=O)/C=C(\C)Nc2ccc3c(c2)OCO3)cc1 | inconclusive: 31.6 µM [inhibitor, single point] |  |
| Cc1[nH]c2ccccc2c1SCCNC(=O)c1ccc(Br)o1 |  | inactive: -4.24% |
| CCN1C(=O)CC(N2CCN(c3ccc(C(=O)c4ccccc4)cc3)CC2)C1=O (configuration not stated) |  | inactive: -6.06% |
| C(=N\Nc1ccccc1)/c1ccc(N2CCOCC2)cc1 | inconclusive: 1 µM [inhibitor, full curve, poor fit] |  |
| O=c1c([N+](=O)[O-])cc(C(F)(F)F)cn1Cc1c(Cl)cccc1Cl |  | inactive: 0.292% |
| Cc1ccc(NNS(=O)(=O)c2ccc(C)cc2)cc1 | inconclusive: 5.01 µM [inhibitor, partial curve] |  |
| O=C(Nc1ccc(Cl)cc1F)c1ccccc1Br |  | inactive: -5.22% |
| COc1ccc(NC(=O)C(C)Sc2ccccc2)cc1 (configuration not stated) |  | inactive: 3.78% |
| Cc1ccc(NS(=O)(=O)c2cccc(C(=O)N/N=C/c3ccc4c(c3)OCCO4)c2)c(C)c1 |  | inactive: 5.97% |
| Oc1ccc(C2Nc3cccc4cccc(c34)N2)c(O)c1 | inconclusive: 25.1 µM [inhibitor, single point] |  |
| COc1cc(/C=C2\SC(=Nc3c(C)n(C)n(-c4ccccc4)c3=O)NC2=O)ccc1O |  | inactive: -0.179% |
| CCn1c(SCC(=O)c2ccc(O)c(O)c2)nnc1-c1ccccc1OC | inconclusive: 0.447 µM [inhibitor, partial curve] |  |
| Cc1ccccc1NC(=S)NC(NC(=O)c1ccccc1C)C(Cl)(Cl)Cl (configuration not stated) | inconclusive: 11.2 µM [inhibitor, partial curve] |  |
| CC(C)NC(=S)N/N=C1\CCCCc2ccccc21 | inconclusive: 39.8 µM [inhibitor, single point] |  |
| Cc1cc(O)c(C=O)c2c1C(=O)Oc1c(C)c(O)c3c(c1O2)C(O)OC3=O (configuration not stated) | inconclusive: 2.24 µM [inhibitor, full curve, poor fit] |  |
| Cc1ccc(C2C(/C=C3/SC(=S)NC3=O)=C(c3cccs3)Oc3ccccc32)cc1 (configuration not stated) | inconclusive: 28.2 µM [inhibitor, single point] |  |
